Legend:
recombinant human eIF5 = recombinant human eIF5 (human, UniProt P55010); test: pull-down
[1] = target: T1, FLAG-tagged 5MP1 (FL-5MP1) (human, UniProt Q9Y6E2 1-419); test: pull-down
T1 sequence (looked up): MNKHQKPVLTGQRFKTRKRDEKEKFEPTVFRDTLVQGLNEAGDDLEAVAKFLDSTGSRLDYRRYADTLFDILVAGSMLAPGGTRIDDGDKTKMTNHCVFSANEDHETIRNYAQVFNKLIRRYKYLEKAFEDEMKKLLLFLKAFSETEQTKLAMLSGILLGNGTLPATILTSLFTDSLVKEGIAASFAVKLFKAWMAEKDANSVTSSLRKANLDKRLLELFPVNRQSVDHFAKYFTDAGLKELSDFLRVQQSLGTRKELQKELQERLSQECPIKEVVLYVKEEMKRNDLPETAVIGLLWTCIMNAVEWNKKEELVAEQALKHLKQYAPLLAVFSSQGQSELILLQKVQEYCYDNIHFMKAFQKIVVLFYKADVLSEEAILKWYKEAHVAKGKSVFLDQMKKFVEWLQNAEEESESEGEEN

binding result (recombinant human eIF5): binds | binding result [1]: binds
B1: GST-fused human eIF2β (GST-eIF2β) (natural protein)
chain: not shown

Reference: article PMC3201852 (Nucleic Acids Research, 2011)
